{"source": "PubChem BioAssay AID1345083", "about": "(National Center for Advancing Translational Sciences (NCATS), 2018)", "note": "The whole screen tested about 94,000 compounds, of which about 6,200 (6.6%) were called active. The inconclusive results got no clear call from the source; some entries with a clear call stand among them for comparison. Calls follow the shape of the dose curve; as a rule, active = well fitted inhibition curve with a large enough effect; inconclusive = small, poorly fitted or top-dose-only effect; inactive = flat fitted curve, though single readings scatter. Potencies of inconclusive entries are doubtful fits and often do not repeat. Potency is read from the fitted curve at half-maximal effect; tags tell the direction and shape of the fitted curve."}
{"experiment": "Cytotoxic Profiling in HEK 293 Cell Line of Diverse Libraries Using Quantitative High-Throughput Screening; also: nearly all actives have a fitted effect of over 60% in size", "details": "HEK 293 viability, ATP luminescence (CellTiter-Glo), 48-72 h; series mostly up to 115 µM", "method_in_brief": "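Luminescence from cellular ATP, measured with CellTiter-Glo, indicates HEK 293 viability. Cells plated at 250 cells/well are treated with compound for 48 or 72 hr at 37 degree Celsius before reagent addition.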"}
{"smiles": "CCCS(=O)(=O)N(C)C1CCc2nn(CC3CC3)c(=O)n2CC1", "note": "(centres undefined)", "Potency": "inactive"}
{"smiles": "COC[C@@H]1CN(Cc2ccc3[nH]ccc3c2)C[C@H]1c1nc(C)no1", "Potency": "inactive"}
{"smiles": "CNC(=O)c1ccc2c(c1)NC(C)(COc1ccccc1)CO2", "note": "(centres undefined)", "Potency": "inconclusive: 89.1 µM [inhibitor, partial curve, poor fit]"}
{"smiles": "O=C(Cc1ccc(F)cc1)NC1CCN(c2ccccc2)C1=O", "note": "(centres undefined)", "Potency": "inactive"}
{"smiles": "COc1ccc(-c2noc(-c3cccn3CC(=O)Nc3ccc(C)cc3Cl)n2)cc1F", "Potency": "inactive"}
{"smiles": "CN1CCN(C(=O)c2cn3cc(-c4ccc(C(F)(F)F)cc4)sc3n2)CC1", "Potency": "inactive"}
{"smiles": "COc1ccc(CN2CC3(CCN(C(=O)Nc4ccc(C)c(C)c4)CC3)C2=O)cc1", "Potency": "inconclusive: 50.1 µM [inhibitor, partial curve, poor fit]"}
{"smiles": "O=C(CC1CCCCC1)N1CCC(c2noc(COc3ccc(F)cc3)n2)CC1", "Potency": "inconclusive: 44.7 µM [inhibitor, partial curve, poor fit]"}
{"smiles": "CCCCCCN(CCC(=O)NCc1ccccc1)C(=O)c1ccoc1", "Potency": "inconclusive: 89.1 µM [inhibitor, single point]"}
{"smiles": "COCC(=O)NC1CCC12CCN(C(=O)Cc1ccccc1)CC2", "note": "(centres undefined)", "Potency": "inconclusive: 100 µM [inhibitor, partial curve, poor fit]"}
{"smiles": "CC(C)CNC(=O)C1COC2(CCCCC2)N1C(=O)c1cccc([N+](=O)[O-])c1", "note": "(centres undefined)", "Potency": "inactive"}
{"smiles": "O=C(NC1CCN(c2cc(-c3ccccc3)[nH]n2)CC1)c1cccc(Cl)c1", "Potency": "active: 28.2 µM"}
{"smiles": "COc1ccc(C(=O)N2CCCC(C(=O)N3CCC(c4nc5ncccc5[nH]4)CC3)C2)cc1", "note": "(centres undefined)", "Potency": "inactive"}
{"smiles": "COCCOCC(=O)N1CC(Oc2ccc(-c3noc(-c4ccccc4)n3)cc2)C1", "Potency": "inconclusive: 11.2 µM [inhibitor, full curve, poor fit]"}
{"smiles": "COc1ccc(OCC2CCN(CC3(O)CCCNC3)CC2)cc1", "note": "(centres undefined)", "Potency": "inconclusive: 50.1 µM [inhibitor, partial curve, poor fit]"}
{"smiles": "Cc1cnc(CC2CCN(S(=O)(=O)c3ccccc3)CC2)n1Cc1ccccc1", "Potency": "inconclusive: 31.6 µM [inhibitor, partial curve, poor fit]"}
{"smiles": "COc1ccccc1N1CCN(c2ncccc2CNC(=O)c2ccoc2)CC1", "Potency": "inactive"}
{"smiles": "O=C(CN1C(=O)C(c2ccccc2)=NC12CCCC2)N1CCc2ccccc21", "Potency": "inconclusive: 35.5 µM [inhibitor, partial curve]"}
{"smiles": "O=C(NCCc1ccccc1)C1CCN(c2nccc(Nc3ccccc3F)n2)CC1", "Potency": "inconclusive: 7.94 µM [inhibitor, full curve, poor fit]"}
